# Source: PubChem BioAssay (NCATS)
# Where “and” joins values, the source holds several entries; their conditions need not be identical. Identical values can stand only once. Inconclusive results, whose numbers are uncertain, are shown with a selection of clear calls. For some of these results: Potencies of inconclusive entries are doubtful fits and often do not repeat. Calls of active or inactive are those of the source. Unless noted, calls come from the whole dose curve; as a rule, active = well fitted curve in the direction sought with a large enough effect; inconclusive = small, poorly fitted or top-dose-only effect, or another doubt; inactive = no such curve, though single readings can be large; an effect the other way counts as inactive or inconclusive.
# Assays:
# [1] = target: Cytochrome P450 2C9 (Homo sapiens) (UniProt P11712); assay: qHTS Assay for Inhibitors and Substrates of Cytochrome P450 2C9 (AID 883); note: nearly all actives have a fitted effect of over 60% in size; note: potency is the fitted concentration of half-maximal effect; for activity change, negative = inhibition: % is set by controls: 0 for no effect and ±100 for the full control effect
# Summary of the method: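 Luminescent read-out of deoxyluciferin hydroxylation, normalized to 57uM sulphaphenazole (AC100). Reaction: 10nM enzyme, 100uM Luciferin-H (equal to KM), 25mM KPO4, 10 min compound preincubation, then 60 min with NADPH regeneration, both at 37C.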
# [2] = qHTS Assay for Identification of Small Molecule Antagonists for NFkB Signaling Pathway (AID 895; active = well fitted inhibition curve with a large enough effect in the signal ratio, with a control signal flat, not every such curve was filed as active; inconclusive = small, poorly fitted or top-dose-only effect, or effect the other way, or a change in a side signal; the % refers to the signal ratio; note: potency is the fitted concentration of half-maximal effect; for activity change, negative = inhibition: % is set by controls: 0 for no effect and ±100 for the full control effect); conditions: NFkB beta-lactamase reporter cells, FRET ratio 460/530, stimulated with 10 pM TNF alpha; activity change, negative = inhibition: at 38.3 µM (top of the series)
# Summary of the method: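 Beta-lactamase reporter read-out (460 and 530 nm emission ratio, 405 nm excitation, 2 hrs substrate loading RT) after 5 hr stimulation with 10 pM TNF alpha in compound-treated NFkB-bla ME-180 cells in low-serum medium.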
# [3] = qHTS Assay for Identification of Small Molecule Antagonists for Thrombopoietin (TPO) Signaling Pathway (AID 918); conditions: TPO-dependent cell signaling reporter, antagonist mode; activity change, negative = inhibition: at 38.5 µM (top of the series); note: nearly all actives have a fitted effect of over 60% in size; note: potency is the fitted concentration of half-maximal effect
# Summary of the method: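 Inhibition read as reduced luciferase luminescence after 24 h at 37 C in IL-3-deprived Ba/F3 cells carrying human TPO receptor and GPIIb-promoter reporter, stimulated with 26 pM TPO (final, its EC50) alongside compound.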
# [4] = qHTS Assay for Identification of Small Molecule Agonists for Hypoxia Response Element Signaling Pathway (AID 914; active = well fitted activation curve with a large enough effect in the signal ratio, with a control signal flat, not every such curve was filed as active; inconclusive = small, poorly fitted or top-dose-only effect, or effect the other way, or a change in a side signal; the % refers to the signal ratio; note: potency is the fitted concentration of half-maximal effect; for activation: top concentration of the series differs between compounds; % of control where 0% means no effect); conditions: ME-180 (cervical carcinoma) HRE-bla reporter, beta-lactamase ratio, CoCl2, 17 h; activation: stronger effect = higher value
# Summary of the method: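 Read-out: CCF4 FRET ratio of 460nm to 530nm emission (excitation 405nm) after 2.5 hours at room temperature, taken from HRE-bla ME-180 cells that had been exposed to compound and EC50 CoCl2 for 17 hours.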
# [5] = target: Cytochrome P450 2D6 (Homo sapiens) (UniProt P10635); assay: qHTS Assay for Inhibitors and Substrates of Cytochrome P450 2D6 (AID 891);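 note: luciferin methyl ether substrate demethylated by CYP2D6 with NADPH regeneration; nearly all actives have a fitted effect of over 60% in size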; note: potency is the fitted concentration of half-maximal effect; for activity change, negative = inhibition: top concentration of the series differs between compounds; % is set by controls: 0 for no effect and ±100 for the full control effect
# Summary of the method: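 Luminescent read-out of luciferin formed by 5 nM human CYP2D6 demethylating 30 uM Luciferin-ME EGE (Km level) over 60 min at room temperature after NADPH regeneration addition. Data normalized to full inhibition by 1.43 uM quinidine.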
# [6] = target: Cytochrome P450 3A4 (Homo sapiens) (UniProt P08684); assay: qHTS Assay for Activators of Cytochrome P450 3A4 (AID 885); note: potency is the fitted concentration of half-maximal effect; nearly all actives have a fitted effect of over 65% in size
# Summary of the method: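 CYP3A4 activity: Luciferin-PPXE O-dealkylation, 25uM substrate, 200mM KPO4, RT throughout. Read-out is luciferase luminescence; higher values reflect activation.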
# [7] = qHTS Assay for Identification of Small Molecule Agonists for Thrombopoietin (TPO) Signaling Pathway (AID 917); note: potency is the fitted concentration of half-maximal effect
# Summary of the method: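 Quantitative HTS for pathway activators: compounds were pin-transferred onto IL-3-starved Ba/F3 cells expressing human TPO receptor, TPO was added at its EC50 (26 pM final), and after 24 hrs at 37 C reporter luciferase was measured.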
# [8] = qHTS Assay for Identification of Small Molecule Agonists for NFkB Signaling Pathway (AID 928; calls by dose curve); conditions: NFkB beta-lactamase reporter cells, blue/green ratio
# Summary of the method: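 Activators were sought with TNF alpha co-added at 10 pM final (its EC50) to beta-lactamase reporter cells. Cells were plated in OPTI MEM with 0.5% FBS and exposed for 5 hrs at 37 C. The FRET substrate ratio was read at 460 and 530 nm.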
# [9] = target: Muscarinic acetylcholine receptor M1 (Rattus norvegicus) (UniProt P08482); assay: qHTS Assay for Antagonists of Acetylcholine Muscarinic M1 Receptor: Kinetic Measurement of Intracellular Calcium Response (AID 943); note: nearly all actives have a fitted effect of over 75% in size; note: potency is the fitted concentration of half-maximal effect;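 for activity change, negative = inhibition: Fluo-4 calcium signal as peak divided by basal fluorescence over 4 min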
# Summary of the method: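 Antagonism measured as reduction of carbachol-evoked (EC80, 100 nM final) calcium flux in rat M1-CHO cells after 10 min compound exposure. Fluo-4 signal read kinetically; ratio of maximal to basal fluorescence.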
# [10] = Cellular Toxicity (caspase-3) NIH 3T3 (AID 666);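 note: caspase signal read after 16 h compound exposure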; note: potency is the fitted concentration of half-maximal effect;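 for caspase-3 activation: 0% = DMSO basal and 100% = 100 µM tamoxifen stimulation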
# Summary of the method: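 Caspase-Glo 3/7 luminescence reported caspase activation in 1000 NIH 3T3 cells/well after 16 h compound exposure at 37 C. DMSO set basal and 100 uM tamoxifen set 100% stimulation; concentration-response modeled with the Hill equation for AC50.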
# [11] = target: Cytochrome P450 3A4 (Homo sapiens) (UniProt P08684); assay: qHTS Assay for Inhibitors and Substrates of Cytochrome P450 3A4 (AID 884); note: nearly all actives have a fitted effect of over 50% in size; note: potency is the fitted concentration of half-maximal effect; for activity change, negative = inhibition: % is set by controls: 0 for no effect and ±100 for the full control effect
# Summary of the method: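 Luminescent readout of luciferin produced by CYP3A4 (20 nM) dealkylation of Luciferin-PPXE, 25 uM (its KM). NADPH-driven reaction ran 60 min at RT after 10 min compound preincubation; data scaled to 57 uM ketoconazole as 100% inhibition.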
# [12] = target: Cytochrome P450 2C19 (Homo sapiens) (UniProt P33261); assay: qHTS Assay for Inhibitors and Substrates of Cytochrome P450 2C19 (AID 899); note: nearly all actives have a fitted effect of over 60% in size; note: potency is the fitted concentration of half-maximal effect
# Summary of the method: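 Luminescence readout of luciferin formed from 10uM Luciferin-H EGE (KM level) by 5 nM CYP2C19 in 50mM KPO4. 60 min NADPH-driven reaction at 37C after 10 min compound preincubation; data scaled to 57uM ketoconazole inhibition.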
# [13] = Cell Viability - LYMP2-001 (AID 921); note: nearly all actives have a fitted effect of over 70% in size; note: potency is the fitted concentration of half-maximal effect
# Summary of the method: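 qHTS, 1536-well; lymphoblastoid cells, 24 hr compound, 37 C; ATP by CellTiter-Glo, 30 min RT; luminescence; Hill-fit AC50.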
# [14] = target: Muscarinic acetylcholine receptor M1 (Rattus norvegicus) (UniProt P08482); assay: qHTS Assay for Antagonists of Acetylcholine Muscarinic M1 Receptor: Measurement of IP-One Response (AID 944); note: nearly all actives have a fitted effect of over 75% in size; note: potency is the fitted concentration of half-maximal effect
# [15] = Cellular Toxicity (caspase-3) Hek293 (AID 664); conditions: HEK293 caspase-3 activation, DMSO = 0%, 100 µM tamoxifen = 100%; at 92.2 µM (top of the series);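 note: cells exposed to compound for 16 h at 37 °C before readout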
# Summary of the method: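 Concentration-response qHTS: caspase 3/7 activation measured by luminescent aminoluciferin substrate cleavage after 16 h compound exposure of Hek 293 cells. AC50 from Hill equation, with DMSO as basal and 100 uM tamoxifen as 100%.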
# [16] = target: Guanine nucleotide-binding protein G(i) subunit alpha-1 (Homo sapiens) (UniProt P63096); assay: qHTS Assay for Inhibitors of RGS12 GoLoco Motif Activity (Green Fluorophore) (AID 879); note: potency is the fitted concentration of half-maximal effect
# Summary of the method: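 A drop in FITC polarization marked displacement of the FITC-tagged RGS12 GoLoco peptide (10 nM) from Gαi1 (50 nM). Compounds were incubated 10 min at room temperature in Tris pH 7.5 buffer containing 150 mM NaCl, 0.1 mM GDP and 0.05% NP40; unlabeled peptide titration served as control.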
# [17] = Confirmation and Secondary Assay for Modulators of Hemoglobin Beta Chain Splicing at IVS2 705 locus (AID 930); conditions: HeLa EGFP-705 splicing reporter, GFP fluorescence, 48 h;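 note: GFP fluorescence per well restored by corrected splicing of the IVS2-705 intron in EGFP; potency is the fitted concentration of half-maximal effect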
# Summary of the method: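 HeLa EGFP-705 reporter; 500 cells/well, o/n 37C 5% CO2; cpd 2 d; 488 ex/500-520 em laser scan; total peak GFP intensity/well. Ref: 500 nM […] antisense PNA.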
# [18] = Cellular Toxicity (caspase-3) N2a (AID 665); conditions: N2a cells, luminescence; Potency: caspase-3 activation; caspase-3 activation: at 92.2 µM (top of the series), normalized: DMSO 0%, 10 µM staurosporine 100%;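 note: compound exposure lasted 16 h at 37 °C before readout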; note: potency is the fitted concentration of half-maximal effect
# Summary of the method: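 Caspase-3/7 activation measured as luminescence from Caspase-Glo reagent (1 h, room temperature) after 16 h compound exposure of mouse N2a cells. AC50 values from Hill-equation concentration-response, scaled between DMSO and 10 uM staurosporine.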
# [19] = Cellular Toxicity (caspase-3) Renal Proximal Tubule (AID 667); conditions: renal proximal tubule cells, caspase-3 activation; primary cells freshly taken from rat;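 note: potency is the fitted concentration of half-maximal effect; cells exposed to compound for 16 hours at 37 °C before detection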
# Summary of the method: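 In qHTS format, rat primary proximal tubule cells seeded at 1000 per well are exposed to compounds for 16 hours at 37 °C. An increase in Caspase-Glo 3/7 luminescence indicates caspase activation.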
# Tags give direction and shape of the fitted curve or compound fluorescence and quenching.
# UniProt P10635, sequence (P10635 whole entry, looked up): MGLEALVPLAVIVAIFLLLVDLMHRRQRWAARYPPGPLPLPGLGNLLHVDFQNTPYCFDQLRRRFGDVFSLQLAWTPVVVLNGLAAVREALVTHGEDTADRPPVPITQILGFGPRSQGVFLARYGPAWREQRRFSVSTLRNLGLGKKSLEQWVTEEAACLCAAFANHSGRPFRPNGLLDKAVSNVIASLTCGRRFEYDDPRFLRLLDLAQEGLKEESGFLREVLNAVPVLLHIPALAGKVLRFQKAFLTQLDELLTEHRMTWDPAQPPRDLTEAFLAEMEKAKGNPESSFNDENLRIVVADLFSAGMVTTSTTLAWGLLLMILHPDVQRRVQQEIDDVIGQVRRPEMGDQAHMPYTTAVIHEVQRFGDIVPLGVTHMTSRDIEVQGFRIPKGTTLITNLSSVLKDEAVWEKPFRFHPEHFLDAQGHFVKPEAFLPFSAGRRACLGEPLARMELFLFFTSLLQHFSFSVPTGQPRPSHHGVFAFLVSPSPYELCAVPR
# UniProt P08684, sequence (P08684 whole entry, looked up): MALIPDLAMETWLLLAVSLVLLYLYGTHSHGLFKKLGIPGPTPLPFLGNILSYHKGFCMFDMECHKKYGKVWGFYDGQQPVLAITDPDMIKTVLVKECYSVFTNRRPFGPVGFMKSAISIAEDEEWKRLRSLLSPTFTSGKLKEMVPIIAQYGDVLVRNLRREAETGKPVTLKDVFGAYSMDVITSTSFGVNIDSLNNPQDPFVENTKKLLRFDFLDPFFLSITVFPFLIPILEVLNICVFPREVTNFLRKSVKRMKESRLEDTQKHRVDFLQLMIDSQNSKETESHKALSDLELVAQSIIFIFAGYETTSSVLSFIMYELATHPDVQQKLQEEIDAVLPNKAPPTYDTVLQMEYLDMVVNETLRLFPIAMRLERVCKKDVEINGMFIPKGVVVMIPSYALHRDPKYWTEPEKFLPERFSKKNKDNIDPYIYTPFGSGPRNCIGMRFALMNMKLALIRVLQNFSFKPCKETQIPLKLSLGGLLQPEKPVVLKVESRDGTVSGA
# UniProt P08482, sequence (P08482 whole entry, looked up): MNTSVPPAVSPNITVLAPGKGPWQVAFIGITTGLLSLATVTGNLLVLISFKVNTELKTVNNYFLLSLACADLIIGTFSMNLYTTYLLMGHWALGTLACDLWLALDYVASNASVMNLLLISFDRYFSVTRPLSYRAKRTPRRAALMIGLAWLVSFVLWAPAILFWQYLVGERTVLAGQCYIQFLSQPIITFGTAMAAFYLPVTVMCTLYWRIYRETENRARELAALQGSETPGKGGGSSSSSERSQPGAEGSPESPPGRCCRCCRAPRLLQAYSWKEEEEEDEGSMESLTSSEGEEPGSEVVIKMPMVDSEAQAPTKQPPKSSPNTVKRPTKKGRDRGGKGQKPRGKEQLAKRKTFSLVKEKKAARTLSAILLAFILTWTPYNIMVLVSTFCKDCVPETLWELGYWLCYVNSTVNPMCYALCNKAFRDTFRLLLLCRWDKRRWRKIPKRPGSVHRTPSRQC
# UniProt P11712, sequence (P11712 whole entry, looked up): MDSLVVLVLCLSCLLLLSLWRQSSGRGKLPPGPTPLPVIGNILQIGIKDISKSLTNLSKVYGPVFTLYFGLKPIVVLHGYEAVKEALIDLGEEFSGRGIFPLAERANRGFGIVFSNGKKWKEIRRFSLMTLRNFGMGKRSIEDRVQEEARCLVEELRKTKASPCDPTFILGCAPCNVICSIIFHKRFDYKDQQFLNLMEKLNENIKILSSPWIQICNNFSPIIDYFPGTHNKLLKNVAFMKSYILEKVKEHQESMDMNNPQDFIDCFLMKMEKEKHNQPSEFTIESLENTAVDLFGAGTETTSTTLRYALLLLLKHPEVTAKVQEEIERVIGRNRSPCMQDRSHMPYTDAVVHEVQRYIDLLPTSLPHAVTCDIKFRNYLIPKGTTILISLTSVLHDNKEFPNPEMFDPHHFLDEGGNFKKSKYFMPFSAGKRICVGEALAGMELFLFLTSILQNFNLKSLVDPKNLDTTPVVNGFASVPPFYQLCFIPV
# UniProt P33261, sequence (P33261 whole entry, looked up): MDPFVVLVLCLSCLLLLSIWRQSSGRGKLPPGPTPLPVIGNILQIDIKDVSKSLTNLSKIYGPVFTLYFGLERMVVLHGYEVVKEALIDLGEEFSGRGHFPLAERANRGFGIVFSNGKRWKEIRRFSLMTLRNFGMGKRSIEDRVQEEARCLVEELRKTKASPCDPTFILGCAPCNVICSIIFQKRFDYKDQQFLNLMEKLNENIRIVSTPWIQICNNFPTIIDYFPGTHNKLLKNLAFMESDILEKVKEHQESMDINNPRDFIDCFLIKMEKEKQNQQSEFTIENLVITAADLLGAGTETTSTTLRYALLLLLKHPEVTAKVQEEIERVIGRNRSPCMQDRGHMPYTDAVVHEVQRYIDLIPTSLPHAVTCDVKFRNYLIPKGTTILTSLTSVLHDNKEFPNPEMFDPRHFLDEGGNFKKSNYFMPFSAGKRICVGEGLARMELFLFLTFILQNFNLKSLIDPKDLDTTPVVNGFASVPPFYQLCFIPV
# UniProt P63096, sequence (P63096 whole entry, looked up): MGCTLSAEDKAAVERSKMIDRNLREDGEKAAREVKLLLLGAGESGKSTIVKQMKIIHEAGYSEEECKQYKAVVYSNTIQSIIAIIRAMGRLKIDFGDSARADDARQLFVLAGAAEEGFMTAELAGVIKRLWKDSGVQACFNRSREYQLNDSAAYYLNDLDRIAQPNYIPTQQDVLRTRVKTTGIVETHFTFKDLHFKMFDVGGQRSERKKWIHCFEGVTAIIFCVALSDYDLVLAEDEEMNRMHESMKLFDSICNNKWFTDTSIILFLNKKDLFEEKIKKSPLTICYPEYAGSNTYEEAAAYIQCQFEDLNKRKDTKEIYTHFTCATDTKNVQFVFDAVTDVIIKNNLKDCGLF
smiles,measurement,setting,value
NC(=O)c1ccccc1,Potency,[1],inactive
same,Potency,[2],inactive
same,"activity change, negative = inhibition",[3],inconclusive: -12% [phenotype inactive]
CCCSc1ccc2nc(NC(=O)OC)[nH]c2c1,outcome,[1],inactive
same,activation,[4],inconclusive: -13.3% and inconclusive: -26%
O=c1c(O)c(-c2ccc(O)cc2)oc2cc(O)cc(O)c12,Potency,[1],active: 15.8 µM
same,Potency,[5],active: 15.8 µM
C[C@H](Cc1ccc(O)c(O)c1)[C@@H](C)Cc1ccc(O)c(O)c1,Potency,[1],active: 1.58 µM
same,Potency,[6],"inconclusive: 0.1 µM [activator, full curve, poor fit]"
same,Potency,[2],active: 7.94 µM
same,Potency,[4],"inconclusive: 7.94 µM [inhibitor, partial curve]"
same,Potency,[7],"inconclusive: 5.01 µM [inhibitor, partial curve]"
same,Potency,[3],active: 5.01 µM
same,Potency,[8],"inconclusive: 7.94 µM [inhibitor, partial curve]"
same,Potency,[9],"inconclusive: 0.0282 µM [inhibitor, full curve, poor fit]"
Cc1ccnc(NS(=O)(=O)c2ccc(N)cc2)n1,Potency,[1],inactive
c1cnc2c(c1)ccc1cccnc12,Potency,[10],inactive
same,Potency,[1],inactive
same,Potency,[11],inactive
same,Potency,[6],"inconclusive: 5.01 µM [activator, partial curve]"
same,Potency,[5],inactive
same,Potency,[2],"inconclusive: 5.01 µM [inhibitor, full curve, poor fit]"
same,Potency,[12],inactive
same,Potency,[7],"inconclusive: 2.51 µM [inhibitor, full curve]"
same,Potency,[13],"inconclusive: 39.8 µM [cytotoxic, partial curve, poor fit]"
same,Potency,[14],inactive
Oc1ccc(/C=C/c2cc(O)cc(O)c2)cc1,caspase-3 activation,[15],inactive: -7.92%
C=Cc1c(C)c2cc3[nH]c(cc4nc(cc5nc(cc1[nH]2)C(C)=C5CCC(=O)O)C(CCC(=O)O)=C4C)c(C)c3C=C,Potency,[16],inactive
same,activation,[4],inconclusive: -73.9%
same,"activity change, negative = inhibition",[3],inconclusive: -28.1% [phenotype inactive]
same,Potency,[9],inactive
c1ccc2[nH]c(-c3cscn3)nc2c1,Potency,[10],"inconclusive: 12.6 µM [falling, partial curve]"
same,Potency,[5],inconclusive: 10 µM
same,Potency,[12],inconclusive: 7.94 µM
same,Potency,[4],"inconclusive: 2.51 µM [activator, single point]"
same,activation,[4],inactive: -2.82%
same,Potency,[13],inactive
O=c1cc(-c2ccc(O)cc2)oc2cc(O)cc(O)c12,Potency,[16],"inconclusive: 25.1 µM [inhibitor, single point]"
same,Potency,[7],"inconclusive: 0.501 µM [activator, full curve, poor fit]"
same,Potency,[17],"inconclusive: 31.6 µM [activator, single point]"
same,Potency,[9],inactive
COC(=O)C1=C(C)NC(C)=C(C(=O)OC)C1c1ccccc1[N+](=O)[O-],Potency,[10],"inconclusive: 31.6 µM [rising, single point]"
N=C1N=C(N)c2cc3ccccc3cc21,caspase-3 activation,[18],inconclusive: 44.8%
same,Potency,[10],"inconclusive: 50.1 µM [rising, partial curve]"
same,Potency,[13],active: 39.8 µM
O=c1[nH]c2ccccc2n1CCCN1CCN(C(c2ccccc2)c2ccccc2)CC1,Potency,[1],"inconclusive: 7.94 µM [inhibitor, full curve, poor fit]"
same,Potency,[6],active: 15.8 µM
same,"activity change, negative = inhibition",[3],inconclusive: -22.1% [phenotype inactive]
same,Potency,[9],active: 5.01 µM
same,Potency,[14],active: 15.8 µM
CN(C)c1ccc(C(=C2C=CC(=[N+](C)C)C=C2)c2ccccc2)cc1,caspase-3 activation,[15],active: -9.3%
same,Potency,[18],active: 0.0794 µM
same,Potency,[10],active: 1 µM
same,Potency,[19],active: 0.794 µM
same,Potency,[4],"inconclusive: 3.98 µM [inhibitor, single point]"
same,Potency,[13],active: 0.199 µM
O=c1cc(-c2ccccc2)oc2cc(O)cc(O)c12,Potency,[1],"inconclusive: 5.01 µM [inhibitor, full curve, poor fit]"
CN[C@H](CC(=O)O)C(=O)O,Potency,[1],inactive
same,Potency,[5],inactive
same,Potency,[2],inactive
same,"activity change, negative = inhibition",[3],inconclusive: -28.2% [phenotype inactive]
same,Potency,[9],"inconclusive: 0.0141 µM [inhibitor, full curve, poor fit]"
O=C(Nc1cccc(C(=O)Nc2ccc(S(=O)(=O)O)c3cc(S(=O)(=O)O)cc(S(=O)(=O)O)c23)c1)Nc1cccc(C(=O)Nc2ccc(S(=O)(=O)O)c3cc(S(=O)(=O)O)cc(S(=O)(=O)O)c23)c1,Potency,[11],"inconclusive: 1.58 µM [inhibitor, full curve]"
same,Potency,[2],"inconclusive: 0.224 µM [activator, full curve]"
same,activation,[4],inactive: -24.7%
same,"activity change, negative = inhibition",[3],inconclusive: -14.4% [phenotype inactive]
same,Potency,[14],"inconclusive: 3.98 µM [inhibitor, full curve, poor fit]"
